# According to patent US8466161B2, “Hydroxamate derivative, a production method for the same, and a pharmaceutical composition comprising the same” (Chong Kun Dang Pharmaceutical Corp., priority 2009, dated 2013):
# For part of these data: At least one compound was matched to its structure with a doubt left. Some entries share one result that the patent states for a list of compounds.
# Columns and labels:
# HDAC enzymes = experiment: Effects against HDAC enzymes (BIOMOL kit, Hela nuclear extract); type: biochemical; settings: for IC50: Hela nuclear extract, 37° C. 1 hour; for HDAC inhibitory activity, times higher than LBH 589: relative to LBH 589; for HDAC inhibitory activity, times higher than SAHA and PXD 101: relative to SAHA and PXD 101
# HL60 cell line = experiment: Inhibitory effect on growth of HL60 cell line (MTT); type: cell-based; settings: for HL60 growth inhibitory effect, times superior to PXD 101: relative to PXD 101; for HL60 growth inhibitory effect, times superior to SAHA: relative to SAHA
# Procedure: In the culture of HL60 cells, 10% FBS-containing RPMI1640 medium was used Each of test substances was serially diluted in DMSO to a concentration of 10 mg/ml and serially diluted in PBS to a final concentration ranging from 100 μg/ml to 0.03 μg/ml. 20 μl (micro-liter) of each of the serially diluted test substances and 180 μl (micro-liter) of a medium containing 60×10^4 cells/ml were added to a 96-well plate and cultured under conditions of 37° C. and 5% CO2 for 3 days. After completion of the culture, 50 μl (micro-liter) of a solution of 1.25 mg/ml MTT (3-(4,5-dimethylthiazol-2-yl)-2,5-diphenyltetrazolium bromide) in PBS was added to each well of the plate and incubated at 37° C. for 3 hours. The formed formazan crystal was dissolved in 150 μl (micro-liter) of DMSO, and the absorbance at 570 nm was measured.
# [1] = tested on: HCT116 (human colorectal carcinoma); experiment: In vivo anticancer activity, HCT116 tumor transplantation model; design: species or system BALB/c nude mice (human tumor xenograft); settings: ip, qd x 5, 2 wks; in words
# Procedure: (§1) Male BALB/c nude mice (4-week old) used in human tumor transplantation studies were purchased from Central Animal Laboratory Inc. (Korea) or Orient Bio Inc. (Korea). The animals were permitted ad libitum access to sterile feed and water in a sterile breeding system at 23+0.5° C.
# (§2) For use in tumor transplantation studies, the human cancer cell lines HCT116 (human colorectal carcinoma, CCL-247), PC-3 (human prostate adenocarcinoma, CRL-1435), and A549 (human lung carcinoma, CCL-185) were purchased from ATCC (American Type Culture Collection, Rockville, Md., USA).
# (§3) HCT116 cells were cultured in an air incubator under conditions of 37° C. and 5% CO2 using McCoy'SA medium (Gibco BRL) containing 10% heat-inactivated fetal bovine serum (Gibco BRL) and 1% antibiotics-antymycotics (Gibco BRL). Cell lines other than the HCT116 cell line were cultured in an air incubator under conditions of 37° C. and 5% CO2 using RPM1640 medium (Gibco BRL) containing 10% heat-inactivated fetal bovine serum (Gibco BRL) and 1% antibiotics-antymycotics (Gibco BRL).
# (§4) Studies on the in vivo transplantation of human cancer cells were carried out in the following manner. […]
# (§5) The anticancer effect of each drug was evaluated based on the inhibition rate (IR %) of tumor volume that indicates the tumor volume at reference date in comparison with control groups. […]
# [2] = tested on: A549 (human lung carcinoma); experiment: In vivo anticancer activity, A549 tumor transplantation model; design: species or system BALB/c nude mice (human tumor xenograft); settings: administered twice a week; in words
# Procedure: as §1, §2, §3, §4, §5
Compound,IC50 (HDAC enzymes) [nM],"HDAC inhibitory activity, times higher than LBH 589 (HDAC enzymes)","HDAC inhibitory activity, times higher than SAHA and PXD 101 (HDAC enzymes)","HL60 growth inhibitory effect, times superior to PXD 101 (HL60 cell line)","HL60 growth inhibitory effect, times superior to SAHA (HL60 cell line)",colon cancer (HCT 116) inhibitory effect compared to control drugs [1],inhibitory effect against non-small cell lung cancer (A549) [2]
"CS(=O)(=O)N(CCCCCCC(=O)NO)c1ccc(-c2ccc3[nH]ccc3c2)cc1 [Compound 303, 7-(N-(4-(1H-indol-5-yl)phenyl)methylsulfonamido)-N-hydroxyheptanamide]",1 to 10,more than 10 times,more than 100 times,more than 10 times,more than 50 times,–,–
"Cc1cc2cc(-c3ccc(N(CCCCCCC(=O)NO)C(=O)N4CCN(C)CC4)cc3)ccc2[nH]1 [Compound 334, N-(7-(hydroxyamino)-7-oxoheptyl)-4-methyl-N-(4-(2-methyl-1H-indol-5-yl)phenyl)piperazine-1-carboxamide]",1 to 10,more than 10 times,more than 100 times,more than 10 times,more than 50 times,excellent inhibitory effects on colon cancer,–
"Cc1[nH]c2ccccc2c1CCNCc1ccc(/C=C/C(=O)NO)cc1 [LBH 589, Panobinostat, reference compound]",–,–,–,–,–,–,did not show a cancer inhibitory effect

# Second part, led by results:
IC50 (HDAC enzymes) [nM],"HDAC inhibitory activity, times higher than LBH 589 (HDAC enzymes)","HDAC inhibitory activity, times higher than SAHA and PXD 101 (HDAC enzymes)",Compound,"HL60 growth inhibitory effect, times superior to PXD 101 (HL60 cell line)","HL60 growth inhibitory effect, times superior to SAHA (HL60 cell line)",colon cancer (HCT 116) inhibitory effect compared to control drugs [1],inhibitory effect against non-small cell lung cancer (A549) [2]
1 to 10,more than 10 times,more than 100 times,"CN1CCN(C(=O)N(CCCCCCC(=O)NO)c2ccc(-c3ccc4cc[nH]c4c3)cc2)CC1 [Compound 309, N-(4-(1H-indol-6-yl)phenyl)-N-(7-(hydroxyamino)-7-oxoheptyl)-4-methylpiperazine-1-carboxamide]",more than 10 times,more than 50 times,–,–
1 to 10,more than 10 times,more than 100 times,"CCN1CCN(C(=O)N(CCCCCCC(=O)NO)c2ccc(-c3ccc4[nH]ccc4c3)cc2)CC1 [Compound 340, N-(4-(1H-indol-5-yl)phenyl)-4-ethyl-N-(7-(hydroxyamino)-7-oxoheptyl)piperazine-1-carboxamide]",more than 10 times,more than 50 times,–,–
1 to 10,more than 10 times,more than 100 times,"O=C(CCCCCCN(C(=O)N1CCOCC1)c1ccc(-c2ccc3cc[nH]c3c2)cc1)NO [Compound 306, N-(4-(1H-indol-6-yl)phenyl)-N-(7-(hydroxyamino)-7-oxoheptyl)morpholine-4-carboxamide]",more than 10 times,more than 50 times,–,–
